PubChem BioAssay AID1458 (National Center for Advancing Translational Sciences (NCATS), 2008)
Screen size: about 210,000 compounds; about 5,900 (2.8%) were called active. The shares of active, inactive and inconclusive entries below differ from those in the screen. Calls come from the whole dose curve; as a rule, active = well fitted activation curve with a large enough effect; inconclusive = small, poorly fitted or top-dose-only effect; inactive = no such curve, though single readings can be large or run the other way. A potency beside an inconclusive call is a rough fit, not a confirmed value.

Experiment: qHTS Assay for Enhancers of SMN2 Splice Variant Expression; note: nearly all actives have a fitted effect of over 55% in size; for activity change, positive = activation: % of control where 0% means no effect
Details: HEK293 SMN2-luciferase splicing reporter, luminescence, 30-36 h; activity change, positive = activation: at 46.1 µM (top of the series)
How it was run: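 HEK293 cells carry an SMN2 […]–luciferase reporter in which exon 7 inclusion puts luciferase in frame. Cells were plated 10-12 h before compound addition, then incubated 30-36 h at 37C. ONE-Glo luminescence was read; sodium butyrate at 4.5 mM final served as control.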
Potency is the fitted concentration of half-maximal effect; tags give direction and shape of the fitted curve.

SMILES	Potency	activity change, positive = activation
c1cnc(N2CCN(c3ncc4c(n3)CCNC4)CC2)nc1	inconclusive: 0.0398 µM [activator, full curve, poor fit]	–
Cc1ccc2[nH]c3c(c2c1)CCc1cn[nH]c1-3	–	inactive: 6.53%
COC(=O)[C@@H]1C[C@H]1[C@@H](NC(=O)c1cccnc1)c1ccccc1	–	inactive: -3.07%
Cn1c(=O)c2c(nc(Br)n2Cc2ccccc2Cl)n(C)c1=O	–	inactive: -20.4%
COc1ccc(C2=NN(C(=O)CSc3ncccn3)C(c3cccc(OC)c3OC)C2)cc1 (stereo not drawn)	–	inactive: -3.93%
CCC(=O)OC1(C)C(=O)C=C2C=C(c3ccsc3)OC=C2C1=O (stereo not drawn)	inconclusive: 14.1 µM [activator, partial curve]	–
COC(=O)Cc1csc(Nc2ccccc2Cl)n1	inconclusive: 35.5 µM [activator, single point]	–
CC(C)c1ccc(NC(=O)C(=O)c2cn(CC(=O)N3CCCCC3)c3ccccc23)cc1	–	inactive: 11.7%
O=C(N/N=C/C=C/c1ccccc1)c1cccs1	inconclusive: 35.5 µM [activator, single point]	–
Cc1ccc2cn[nH]c2c1[N+](=O)[O-]	–	inactive: 4.3%
COc1ccc(CN(C(=O)c2oc3ccccc3c2C)C2CCS(=O)(=O)C2)cc1 (stereo not drawn)	inconclusive: 10 µM [activator, partial curve, poor fit]	–
COc1ccc(C)cc1NS(=O)(=O)c1ccc(Br)s1	inconclusive: 0.282 µM [activator, partial curve, poor fit]	–
Cc1ccc(-c2c(C(=O)NCCc3ccccc3)oc(=O)c3ccccc23)cc1	–	inactive: 2.14%
COc1ccc2cc(-c3cc(C(=O)O)c4ccccc4n3)ccc2c1	inconclusive: 20 µM [activator, single point]	–
COc1cccc(NS(=O)(=O)c2cc(C)ccc2OC)c1	inconclusive: 0.0158 µM [activator, full curve]	–
Cc1cccc2sc(NC(=O)c3ccc(Cl)s3)nc12	–	inactive: -32.6%
CCN(CC)c1ccc(NC(=O)c2cnn(-c3ccccc3)c2-n2cccc2)c(C)c1	inconclusive: 0.0562 µM [activator, full curve, poor fit]	–
CC(=O)N1CCc2cc(S(=O)(=O)CCC(=O)Nc3ccc(C)cc3Br)ccc21	–	inactive: -6.43%
CC(C)NC(=S)N1CCN(Cc2ccc3c(c2)OCO3)CC1	–	inactive: -1.6%
Cc1ccc(-c2nn3c(C)nnc3s2)cc1NC(=O)c1ccc(OC(C)C)cc1	inconclusive: 17.8 µM [activator, partial curve, poor fit]	–
O=C(CSCc1ccccc1Cl)NN1C(=O)c2ccccc2C1=O	–	inactive: 1.45%
O=C(COc1ncnc2ccc(Br)cc12)NCc1ccc2c(c1)OCO2	inconclusive: 5.62 µM [activator, full curve, poor fit]	–
CCn1c(C(=O)N2CCC(C(=O)NCCc3ccc(C)cc3)CC2)cc2sccc21	–	inactive: -24.3%
Cc1nc2nc(-c3ccc(Cl)cc3)[nH]n2c(=O)c1Cc1ccccc1	inconclusive: 25.1 µM [activator, single point]	–
Clc1cccc2sc(N3CCCCC3)nc12	inconclusive: 12.6 µM [activator, single point]	–

SMILES	Potency	activity change, positive = activation
CCc1ccc(/C=C2\Oc3ccc(C(=O)OC)cc3C2=O)cc1	inconclusive: 6.31 µM [activator, partial curve]	–
O=C1CCCC2=C1C(c1cccc(O)c1)c1c(ccc3ncccc13)N2 (stereo not drawn)	inconclusive: 11.2 µM [activator, partial curve]	–
CCC(=O)Oc1ccc(NC(=O)c2ccco2)cc1	–	inactive: 9.42%
Nc1nc(-c2ccccc2)cc(N2CCCCC2)n1	–	inactive: 5.9%
CCN(c1ccccc1)S(=O)(=O)c1ccc(OC)c(NC(=O)CNC)c1	inconclusive: 0.891 µM [activator, partial curve, poor fit]	–
CC(=O)Nc1cccc(N/C=C(\C=O)c2nc3ccccc3o2)c1	inconclusive: 35.5 µM [activator, single point]	–
CCOc1ccc(NC(=S)N(CCCN2CCOCC2)Cc2cn(C)c3ccccc23)cc1	inconclusive: 0.005 µM [activator, full curve, poor fit]	–
COc1ccccc1Nc1nc(N)nc(CSc2nccc(C)n2)n1	inconclusive: 12.6 µM [activator, partial curve]	–
COc1cccc(-c2cc(C(=O)N3C(C)CCCC3C)no2)c1 (stereo not drawn)	active: 14.1 µM	–
Nc1nc2c(s1)CC(c1ccccc1)CC2 (stereo not drawn)	–	inactive: -16.3%
Cc1ccc(NC(=O)CCc2c(C)nc3c(-c4ccc(F)cc4)c(C)nn3c2C)cc1F	–	inactive: 7.22%
Cc1ccc2oc(-c3ccc(NC(=O)CCC(=O)O)cc3)nc2c1	active: 11.2 µM	–
O=C(Nc1ccccc1Br)C(=O)N1CCCC1	inconclusive: 5.62 µM [activator, full curve, poor fit]	–
CNc1ncnc2ccc(-c3cccc(NS(C)(=O)=O)c3)cc12	inconclusive: 25.1 µM [activator, single point]	–
Cc1cc(C(=O)CSc2nnnn2C)c(C)n1-c1cccc(F)c1	active: 12.6 µM	–
CC(=O)c1cccc(NC(=S)NC(=O)c2cccc(Cl)c2)c1	inconclusive: 14.1 µM [activator, partial curve, poor fit]	–
COC(=O)c1cn(-c2cccc(C)n2)cn1	–	inactive: 3.27%
O=C(N/N=C/c1c[nH]c2ccccc12)C1CC(=O)N(c2ccccc2)C1 (stereo not drawn)	inconclusive: 5.62 µM [activator, single point]	–
CNC(=O)[C@@]1(C)C=C[C@@H](Cc2ccccc2)N1C(=O)OC	inconclusive: 7.94 µM [activator, partial curve]	–
COC(=O)N/N=C\c1c(C)nn(-c2ccccc2)c1Cl	inconclusive: 20 µM [activator, single point]	–
O=C(NC(=S)Nc1ccc2oc(=O)ccc2c1)c1ccc(-c2cccc(Cl)c2Cl)o1	inconclusive: 5.62 µM [activator, single point]	–
Cc1cccc(C)c1Nc1nnc(SCc2nc3ccccc3s2)s1	inconclusive: 31.6 µM [activator, single point]	–
CCc1nnc(NC(=O)c2csc3c2CCC(C)C3)s1 (stereo not drawn)	inconclusive: 4.47 µM [activator, partial curve, poor fit]	–
CCn1c(SCC(=O)Nc2cc(C)c(Cl)cc2OC)nnc1-c1ccco1	inconclusive: 3.16 µM [activator, partial curve]	–
O=C(N/N=C/c1cccc(F)c1)c1cc(-c2ccco2)nc2ccccc12	inconclusive: 31.6 µM [activator, single point]	–

SMILES	Potency	activity change, positive = activation
CN(CCC#N)C(=O)COC(=O)c1ccc2[nH]c3c(c2c1)CCCC3	inconclusive: 35.5 µM [activator, single point]	–
COc1ccc(NC(=S)N/N=C/c2ccc(F)cc2)cc1OC	inconclusive: 31.6 µM [activator, single point]	–
Cc1ccc(C(=O)Nc2nnn(C)n2)cc1	inconclusive: 20 µM [activator, single point]	–
CCCN1CCN(CCCNC(=O)c2cc3c(=O)n(CC)c4ccccc4c3s2)CC1	inconclusive: 2 µM [activator, partial curve]	–
CCOC(=O)c1c(NC(=O)Cc2coc3cc(C)cc(C)c23)sc2c1CCC2	–	inactive: -2.33%
CCOc1ccccc1N(CC(=O)NC1CCCC1)C(=O)CCCC(=O)Nc1ccccn1	inconclusive: 11.2 µM [activator, partial curve, poor fit]	–
Cc1c(C(=O)Nn2cnnc2)oc2ccccc12	inconclusive: 1.41 µM [activator, full curve, poor fit]	–
Cn1cnnc1SCC(=O)Nc1ccc2c(c1)CCC2	–	inactive: 3.42%
COCCn1nnnc1C(c1cccc(OC)c1OC)N1CCN(C2CCCCC2)CC1 (stereo not drawn)	inconclusive: 35.5 µM [activator, single point]	–
COc1ccc(CN2CCC(C(=O)N3CCCC(C)C3)CC2)cc1OC (stereo not drawn)	inconclusive: 3.98 µM [activator, single point]	–
CCOC(=O)C(NC(=O)Nc1ccc(Cl)cn1)(Oc1ccccc1)C(F)(F)F (stereo not drawn)	–	inactive: 9.39%
Cc1ccc(S(=O)(=O)N2CCN(S(=O)(=O)N3CCCCC3)CC2)cc1	inconclusive: 0.0045 µM [activator, full curve, poor fit]	–
COc1ccc(C(=O)c2oc3ccccc3c2NC(=O)c2cc(=O)c3ccc(C)cc3o2)cc1Cl	–	inactive: -2.82%
O=[N+]([O-])c1ccccc1-c1ccc(C(=S)N2CCCC2)o1	active: 11.2 µM	–
CCOC(=O)C1CCCN(C(=O)CC(C)c2ccccc2)C1 (stereo not drawn)	inconclusive: 35.5 µM [activator, single point]	–
NC(=O)c1sc2nc3c(c(-c4cccnc4)c2c1N)CCC3	–	inactive: -21.5%
CC(=O)c1c(C)[nH]c(C(=O)OCc2ccccc2)c1C	inconclusive: 3.55 µM [activator, full curve]	–
O=C(/C=C/c1ccc(O)cc1)OCc1occc(=O)c1O[C@@H]1OC(CO)[C@@H](O)[C@H](O)[C@@H]1O (stereo partly drawn)	inconclusive: 0.0316 µM [activator, full curve, poor fit]	–
CN(C)Cc1ccccc1-c1cncnc1Nc1ccc(F)cc1	–	inactive: -9.99%
COc1ccc(-c2nc3ccccn3c2NCc2ccc3c(c2)OCO3)cc1	active: 14.1 µM	–
O=S(=O)(c1cccc2nsnc12)N1CCc2ccccc21	inconclusive: 10 µM [activator, partial curve, poor fit]	–
Cc1cc(NC(=O)/C=C/c2ccccc2Cl)no1	inconclusive: 8.91 µM [activator, partial curve, poor fit]	–
COc1cccc(-n2c(=O)c3cc(OC)c(OC)cc3n(CC(=O)Nc3ccc(F)cc3)c2=O)c1	–	inactive: -0.0261%
